# According to PMC4336329 (PLoS ONE, 2015):
# In all, about 310,000 compounds went through this assay and about 14,000 (4.5%) showed an effect of 50% or more. Effects have a minus sign here. The list shows a part of the results.
# Target: human ether-à-go-go-related gene (hERG) potassium channel (human, UniProt Q12809)
# Assay: primary screen, population patch clamp on CHO cells stably expressing hERG
# 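Also: peak tail current of the secondary pulse compared with the same well before compound.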
# human ether-à-go-go-related gene (hERG) potassium channel, sequence (Q12809 whole entry, looked up): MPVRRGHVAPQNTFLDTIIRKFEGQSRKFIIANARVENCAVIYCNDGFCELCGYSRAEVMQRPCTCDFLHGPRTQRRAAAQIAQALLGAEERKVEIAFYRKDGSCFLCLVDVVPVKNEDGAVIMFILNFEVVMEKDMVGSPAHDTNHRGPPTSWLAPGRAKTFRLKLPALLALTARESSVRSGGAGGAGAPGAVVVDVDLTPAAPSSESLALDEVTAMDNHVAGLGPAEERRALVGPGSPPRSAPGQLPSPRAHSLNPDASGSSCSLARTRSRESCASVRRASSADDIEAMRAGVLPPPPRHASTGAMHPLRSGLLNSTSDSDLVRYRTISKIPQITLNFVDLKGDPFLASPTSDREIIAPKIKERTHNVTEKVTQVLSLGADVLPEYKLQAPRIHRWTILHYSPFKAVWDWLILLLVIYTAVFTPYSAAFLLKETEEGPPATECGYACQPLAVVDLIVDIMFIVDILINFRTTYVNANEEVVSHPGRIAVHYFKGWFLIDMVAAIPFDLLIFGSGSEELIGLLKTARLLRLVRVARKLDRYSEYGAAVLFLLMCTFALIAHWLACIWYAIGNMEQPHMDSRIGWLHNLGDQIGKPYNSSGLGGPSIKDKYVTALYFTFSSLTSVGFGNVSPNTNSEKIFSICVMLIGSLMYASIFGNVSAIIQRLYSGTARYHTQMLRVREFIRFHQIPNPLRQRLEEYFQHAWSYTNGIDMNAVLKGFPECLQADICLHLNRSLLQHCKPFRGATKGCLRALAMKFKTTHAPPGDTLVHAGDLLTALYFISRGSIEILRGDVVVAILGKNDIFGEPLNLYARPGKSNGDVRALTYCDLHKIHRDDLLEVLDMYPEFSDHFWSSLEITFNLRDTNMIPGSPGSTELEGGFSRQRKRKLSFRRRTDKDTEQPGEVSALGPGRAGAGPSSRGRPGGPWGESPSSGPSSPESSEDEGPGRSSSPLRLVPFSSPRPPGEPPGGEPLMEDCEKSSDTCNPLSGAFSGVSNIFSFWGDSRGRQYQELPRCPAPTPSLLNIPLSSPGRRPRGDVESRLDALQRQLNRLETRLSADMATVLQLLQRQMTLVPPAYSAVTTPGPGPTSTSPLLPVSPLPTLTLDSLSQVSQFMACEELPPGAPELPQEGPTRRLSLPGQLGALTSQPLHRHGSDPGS
row,SMILES,"hERG current change (%, negative = inhibition) at 10uM [%]"
1,CC(=O)Nc1ccc(S(=O)(=O)NCCS(=O)(=O)N2CCN(c3ccccc3F)CC2)cc1,10.2
2,CCC(CC)NCC(O)COc1ccc(Br)cc1.O=C(O)C(=O)O (stereo not shown),-30.5
3,O=S(=O)(NC(=NC1CCCC1)C(F)(F)F)c1ccccc1,2.25
4,O=C(NCCN1C(=O)S/C(=C/c2cccnc2)C1=O)C1CC(=O)N(Cc2ccccc2)C1 (stereo not shown),14.4
5,CC(C)c1ccc(CN(C(=O)c2ccco2)C2CCS(=O)(=O)C2)cc1 (stereo not shown),-20.2
6,Cc1nc([N+](=O)[O-])cn1CC(=O)c1ccc(Br)cc1,15.7
7,COCCCNC(=O)C1CC(=O)N(Cc2ccc(OC)cc2)C1 (stereo not shown),21.6
8,COc1cc2c(cc1OC)C(C(=O)NCCC(C)C)C1CCCCN1C2=O (stereo not shown),-4.23
9,O=C1COc2ccc(C(=O)COC(=O)c3ccc(S(=O)(=O)C(F)F)cc3)cc2N1,-40.6
10,CC(C)[C@H](NC(=O)c1ccco1)C(=O)OCC(=O)Nc1ccc(F)cc1,-10.6
11,Nn1c(Cc2ccccc2F)nnc1SCC(=O)Nc1cccc(S(=O)(=O)NC2=NCCCCC2)c1,0.139
12,CSc1nnc(-c2cc3c(-c4ccccc4)nn(C)c3s2)n1C,-17.1
13,Cc1ccc(S(=O)(=O)c2nc(-c3ccco3)oc2N2CCC(C)CC2)cc1,-11.7
14,CCn1c(SCC(=O)Nc2cccc(S(=O)(=O)N(C)c3ccccc3)c2)nnc1C1CC1,-44.1
15,COc1cc(CC(=O)OCC(=O)NCCc2ccc(S(N)(=O)=O)cc2)cc(OC)c1OC,-2.43
16,Cc1cccc(C(=O)NC(NCCc2ccccc2)C(Cl)(Cl)Cl)c1 (stereo not shown),4.3
17,CCO[C@H]1OC(C(=O)Nc2ccccc2)=C[C@@H](c2cn(C(C)=O)c3ccccc23)[C@@H]1CCCO,-62.5
18,O=C(c1cc2c(ccc3ccccc32)oc1=O)N1CCN(CCO)CC1,22
19,Cc1ccc(NC(=O)C2C(=O)N(C)c3ccccc32)cc1 (stereo not shown),2.76
20,Nc1cccc(Oc2ccc([N+](=O)[O-])cc2)c1,12.6
21,C/C=C/c1ccc(OCCCCN2C(=O)NC(C)(C)C2=O)c(OC)c1,-7.09
22,COc1cc(NC(=O)c2nccnc2N)cc(C(=O)Nc2cccc(C(F)(F)F)c2)c1,-3.31

row,SMILES,"hERG current change (%, negative = inhibition) at 10uM [%]"
1,COc1ccc(Oc2coc3c(CN4CCOCC4)c(O)ccc3c2=O)cc1,-7.19
2,C/C(CCc1ccccc1)=N\NC(=O)c1ccc(CN2CCOCC2)cc1,8.55
3,CCN1C(=O)CC(C(=O)NCCc2ccc(S(N)(=O)=O)cc2)SC1=Nc1ccc(OC)cc1 (stereo not shown),7.2
4,CCCn1c(=O)c2ccccc2n2c(=S)[nH]nc12,26.2
5,COc1ccccc1NC(=O)CC1C(=O)Nc2ccccc2N1C(=O)c1ccccc1 (stereo not shown),15.5
6,Cc1ccc2sc(NC(=O)CN3C(=O)CCC3=O)nc2c1C,-6.52
7,O=C(N/N=C/c1cccnc1)c1ccccc1Br,24.4
8,CCN(CC)S(=O)(=O)c1cccc(NC(=O)c2ccc(Sc3nncn3C)c([N+](=O)[O-])c2)c1,-1.36
9,O=C(O)CSCC(=O)Nc1cccc(C(F)(F)F)c1,-6.67
10,COc1ccc(CN(Cc2cccn2C)S(=O)(=O)c2ccc(C)cc2)cc1,-5.52
11,CCOC(=O)c1sc(Nc2ccccc2Cl)nc1C.O=C(O)C(=O)O,2.81
12,Cc1ccc(S(=O)(=O)NCCC(=O)NCc2ccccn2)cc1,11.1
13,c1ccc(OCc2nn3c(-c4n[nH]c5c4CCC5)nnc3s2)cc1,1.77
14,COc1ccccc1N1CCN(C(=O)c2cc(-c3ccco3)on2)CC1,-26.3
15,CN(N)C(=S)Nc1ccc(Cl)cc1,12.3
16,O=C(O)CCCN1C(=O)/C(=C\C(Cl)=C\c2ccccc2)SC1=S,13.6
17,O=C(NC1CC(=O)N(c2ccc(Cl)cc2)C1)C1CC1 (stereo not shown),-18.2
18,CC(CC(=O)Nc1cccc(Cl)c1)c1ccccc1 (stereo not shown),-6.32
19,Cc1cccc(Oc2ncnc(N)c2[N+](=O)[O-])c1,-8.79
20,O=C(COc1ccccc1[N+](=O)[O-])Nc1cccnc1,14.5
21,Cc1cccc(C)c1N1C(=O)CC(N2CCSCC2)C1=O (stereo not shown),-25.6
